Laboratory results taken from PubChem BioAssay AID2546 (National Center for Advancing Translational Sciences (NCATS), 2010).
Hit rate of the full screen: of about 310,000 compounds, about 11,000 (3.5%) were called active. Inconclusive results, whose numbers are uncertain, are shown with a selection of clear calls. Calls come from the whole dose curve; as a rule, active = well fitted inhibition curve with a large enough effect; inconclusive = small, poorly fitted or top-dose-only effect, or effect the other way; inactive = flat fitted curve, though single readings scatter. Potencies of inconclusive entries are left out as doubtful fits.

assay: VP16 counterscreen qHTS for inhibitors of ROR gamma transcriptional activity; conditions: Drosophila S2 Gal4-VP16 UAS-luciferase, luminescence, 20 h; activity, negative = inhibition: at 53.6 µM (top of the series);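 note: Gal4-VP16 expression switched on by copper sulfate through the metallothionein promoter; nearly all actives have a fitted effect of over 50% in size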
% is set by controls: 0 for no effect and ±100 for the full control effect; potency is the fitted concentration of half-maximal effect; tags give direction and shape of the fitted curve.

Structure (SMILES)	Potency	activity, negative = inhibition
COC(=O)c1cc(C(=O)OC)cc(N2C(=O)CC(Sc3nc(C)cc(C)n3)C2=O)c1 (stereo not given)	inconclusive [inhibitor, single point]	–
O=C(c1ccccc1)N(Cc1ccc(F)cc1)Cc1nc2ccccc2c(=O)[nH]1	inconclusive [inhibitor, single point]	–
CCN(CC)S(=O)(=O)c1ccc(N2CCOCC2)c(NC(=O)c2ccc(OC)c([N+](=O)[O-])c2)c1	–	inactive: 3.33%
O=C(Nc1ccccc1C(=O)O)c1ccc2ccccc2n1	inconclusive [inhibitor, single point]	–
CCOc1ccc(-c2nc(-c3ccccc3C)no2)cc1	inconclusive [inhibitor, single point]	–
CCn1c(-c2ccco2)n[nH]c1=S	inconclusive [inhibitor, single point]	–
O=C(CCc1ccncc1)NC1CCCc2c1cnn2-c1ccc(F)cc1F (stereo not given)	inconclusive [inhibitor, single point]	–
Fc1ccccc1CNC(=S)Nc1ccc(Cl)cc1	active: 7.08 µM	–
CC1CCN(C(=S)NC(=O)c2ccccc2)CC1	active: 4.47 µM	–
CCOC(=O)c1sc(NC(=O)c2ccccc2)cc1C	–	inactive: -3.56%
CN(CC1COc2ccccc2O1)C(=S)NC1CCCCC1 (stereo not given)	inconclusive [inhibitor, single point]	–
CCOc1ccc(NC(=O)c2ccccc2C(=O)c2ccccc2)cc1OCC	–	inactive: -6.2%
COc1cccc2cc(C(=O)NCCC3=CCCCC3)c(=O)oc12	–	inactive: 10.6%
CCC(C(=O)NC1CCCC1)N(C(=O)Cn1nnc(-c2ccc(C)o2)n1)c1cccc(O)c1 (stereo not given)	–	inactive: -9.3%
O=C(COC(=O)c1ccccc1Nc1ccc(SC(F)F)cc1)NC1CC1	inconclusive [inhibitor, single point]	–
Cc1cccc(C)c1N=Nc1c(C)cc(O)cc1C	inconclusive [inhibitor, single point]	–
CN(C)CC#CCCCCCCC#CCN(C)C	–	inactive: -0.996%
COc1ccccc1N1CCN(C2=Nc3cccc4cccc2c34)CC1	inconclusive [inhibitor, single point]	–
Cc1ccc(-c2cc(C(=O)N3CCN(c4ncccn4)CC3)c3ccccc3n2)cc1	inconclusive [inhibitor, single point]	–
Cc1cc(C)n(CCc2nc(-c3ccc(C(C)(C)C)cc3)cs2)n1	inconclusive [inhibitor, single point]	–
Cc1ccc2c3c([nH]c2c1C)-c1nonc1CC3	–	inactive: -29.1%
O=C(N/N=C/c1cn(CCOc2ccccc2)c2ccccc12)c1ccncc1	active: 10 µM	–
CCc1ccccc1NC(=S)NCc1ccc2c(c1)OCO2	active: 11.2 µM	–
CC(C)CN1CCC(=O)N([C@H](COc2ccccc2)Cc2ccccc2)CC1	–	inactive: -6.83%
Cc1nc(Nc2cccc(Cl)c2)c2oc3ccccc3c2n1	–	inactive: 22.6%

Structure (SMILES)	Potency	activity, negative = inhibition
CN(C)/N=C/C=C1\CCC/C(=C/c2cccs2)C1=O	inconclusive [activator, full curve, poor fit]	–
CCOC(=O)c1c(CC(C)C)csc1NC(C)=O	–	inactive: 5.54%
CCCC[C@@H]1CNC(=S)N1CCC12CC3CC(CC(C3)C1)C2	active: 3.16 µM	–
CON1C(=O)C(=O)N(OC)C2CCCCCC21 (stereo not given)	inconclusive [activator, single point]	–
CC(C)Nc1nc(NC(N)=S)nc(NC(C)(C)C)n1	inconclusive [inhibitor, single point]	–
CCOC(=O)c1sc(NC(=O)CCSC)nc1C	–	inactive: 23.7%
CC(C)CNC(=S)NNC(=O)c1csc2c1CCCC2	inconclusive [inhibitor, single point]	–
Cc1cccc(Cn2c(C)nc3c(N)c(C)c(C)cc32)c1	–	inconclusive: -32% [inhibitor]
CCCCCCCN(C(=O)CCl)c1ccccc1C	inconclusive [inhibitor, single point]	–
COc1ccc(C2=CC(c3cc(OC)c(OC)c(OC)c3)NC(=S)N2)cc1 (stereo not given)	inconclusive [inhibitor, single point]	–
COc1cccc(CN(C)C(=O)c2[nH]c(C)c(C(C)=O)c2C)c1OC	inconclusive [inhibitor, single point]	–
O=C(CSc1nc2ccccc2c(=O)n1Cc1ccco1)NCc1ccco1	inconclusive [inhibitor, single point]	–
O=C(CCCc1ccccc1)N1CCN(C2CCCCC2)CC1	inconclusive [activator, single point]	–
COc1ccccc1CNc1ncnc2ccc(-c3cccc(NS(C)(=O)=O)c3)cc12	inconclusive [inhibitor, single point]	–
Cc1sc(N/N=C/c2ccco2)nc1-c1ccccc1	inconclusive [inhibitor, single point]	–
CC(=O)CCc1ccc(OCCCOc2cccc3cccnc23)cc1	inconclusive [inhibitor, single point]	–
COc1ccc(/C(O)=C2\C(=O)C(=O)N(CCN(C)C)C2c2cc(OC)c(OC)c(OC)c2)c(C)c1 (stereo not given)	–	inactive: -1.44%
CCOC(=O)c1c(NC(=O)CCl)sc(C(=O)N(CC)CC)c1C	inconclusive [inhibitor, single point]	–
Cc1ccc(CNC(=O)Cc2csc(Nc3nc(=S)[nH]c4ccccc34)n2)cc1	active: 7.08 µM	–
O=C(Nc1ccccc1)c1ccc(S(=O)(=O)Nc2cccc(O)c2)cc1	inconclusive [inhibitor, single point]	–
Cc1nn(-c2cccc(Cl)c2)c2nc(-c3ccco3)cc(C(=O)O)c12	–	inactive: 6.89%
Cc1c([N+](=O)[O-])c(C(=O)NC2CCCCC2)nn1C	–	inactive: -7%
Cc1ccc(-c2ocnc2C(=O)Nc2ccccc2NC(=O)c2ccccn2)cc1	active: 11.2 µM	–
COc1cc(CNc2ccc3[nH]c(=O)[nH]c3c2)ccc1OCC(=O)NC(C)(C)C	–	inactive: -2.35%
Oc1ccc(/C=C\c2cc(O)cc(O)c2)cc1	active: 12.6 µM	–

Structure (SMILES)	Potency	activity, negative = inhibition
O=C(NC(=S)N1CCOCC1)c1ccccc1Cl	inconclusive [inhibitor, full curve, poor fit]	–
CCSc1nnc(NC(=O)CSc2nccn2-c2cccc(C)c2)s1	inconclusive [inhibitor, single point]	–
Cc1c(Cl)cccc1NC(=S)NCCc1ccc(C(F)(F)F)cc1	inconclusive [inhibitor, single point]	–
Cc1ccc(-c2ccc(/C=N/NC(=O)c3ccccc3O)o2)cc1	active: 0.158 µM	–
CCOC(=O)c1ccc(C(=S)N2CCCC2)cc1	–	inactive: -0.626%
COC(=O)c1c(NC(=S)Nc2cc(OC)c(Cl)cc2OC)sc2c1CCCCC2	inconclusive [inhibitor, partial curve, poor fit]	–
Cc1sc2ncnc(Sc3nnnn3-c3ccc(Cl)cc3)c2c1C	active: 7.08 µM	–
COc1ccc(-n2c(-c3ccc(Br)cc3)n[nH]c2=S)cc1	active: 2.51 µM	–
COc1ccc(Cn2c(SCC#N)nc3ccc(N4CCOCC4)cc3c2=O)cc1	inconclusive [inhibitor, single point]	–
NN(Cc1ccccc1)C(=S)Nc1ccc(Cl)c(Cl)c1	inconclusive [inhibitor, single point]	–
CC(C)c1ccc(N2C(=O)/C(=C/N(C)C)SC2=S)cc1	inconclusive [inhibitor, single point]	–
Cc1cc(C(=O)CC#N)c(C)n1-c1ccc(OC(F)F)cc1	inconclusive [inhibitor, single point]	–
Cc1nn(CCCC(=O)NCc2ccccc2)c(C)c1[N+](=O)[O-]	inconclusive [inhibitor, partial curve, poor fit]	–
CN(C(=O)c1cccc(Nc2ccc(-c3ccc4c(c3)OCCO4)nn2)c1)C1CCCCC1	inconclusive [inhibitor, partial curve]	–
c1ccc(CSc2nnc3ccc(-c4ccco4)nn23)nc1	inconclusive [activator, single point]	–
Cc1noc(C)c1C(=O)N1CCC[C@@]2(CCN(Cc3cc(C(F)(F)F)cc(C(F)(F)F)c3)C2)C1	–	inactive: -4.82%
c1ccc2c(c1)Cn1c-2nc2ccccc21	inconclusive [inhibitor, single point]	–
Cc1cc(NC(=O)c2nn3cccnc3c2Cl)no1	inconclusive [inhibitor, single point]	–
Cc1onc(-c2c(Cl)cccc2Cl)c1C(=O)Nc1nc(C(C)(C)C)cs1	inconclusive [inhibitor, single point]	–
COc1ccc(CN(Cc2ccc(C(=O)O)cc2)C(=S)Nc2ccccc2F)cc1OC	–	inactive: -13.1%
CCCCn1c(SCC(=O)Nc2nnc(C)s2)nc2c1c(=O)n(C)c(=O)n2C	–	inactive: -7.08%
Cc1nn(-c2ccccc2)c(C)c1NC(=O)COc1ccc(Cl)cc1Cl	inconclusive [inhibitor, single point]	–
Cc1c(C(=O)NC(=S)Nc2ccc3c4c(cccc24)CC3)cccc1[N+](=O)[O-]	active: 5.01 µM	–
Cc1cc(C)nc(-n2nc(C)cc2NC(=O)CN2CCC(C)CC2)n1	inconclusive [inhibitor, full curve, poor fit]	–
CC1Cc2ccccc2N1C(=O)CN1CCC(n2nnc3cc(C(F)(F)F)ccc32)CC1 (stereo not given)	active: 3.98 µM	–
